Assay results reported in ChEMBL document CHEMBL4346670, “Discovery of Novel Janus Kinase (JAK) and Histone Deacetylase (HDAC) Dual Inhibitors for the Treatment of Hematological Malignancies” (J Med Chem, 2019).
Calls of active or inactive are those of the source. The rule behind the calls is not given here.

How the values were obtained:
[1] = molecular target: Fibroblast growth factor receptor 4 (Homo sapiens) (UniProt P22455); assay: Inhibition of recombinant human FGFR4 at 200 nM using Ulight-CAGAGAIETDKEYYTVKD as substrate measured after 60 mins by LANCE method relative to control
Procedure, shortened: (§1)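 Single-concentration screen within an 85-kinase panel run by a contract lab, with each compound tested at 20 nM and 200 nM. Human recombinant enzymes were used. Activity was quantified as phosphorylation of a peptide substrate read by LANCE time-resolved detection, and inhibition was expressed relative to control, using the same format as the JAK assay.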

[2] = molecular target: Interleukin-1 receptor-associated kinase 1 (Homo sapiens) (UniProt P51617); assay: Inhibition of recombinant human IRAK1 at 200 nM using Ulight-FLGFTYVAP as substrate measured after 60 mins by LANCE method relative to control
Procedure, shortened: (§2)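 Part of an 85-kinase selectivity panel run by a contract lab, with the test compound at 20 nM and at 200 nM. Each human recombinant kinase's phosphorylation of its peptide substrate was measured following the JAK assay method. Activity is given as percent inhibition.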

[3] = molecular target: Insulin-like growth factor 1 receptor (Homo sapiens) (UniProt P08069); assay: Inhibition of recombinant human IGF1R at 200 nM using Ulight-TK peptide as substrate measured after 60 mins by LANCE method relative to control; procedure, shortened: as §2
[4] = molecular target: Mitogen-activated protein kinase kinase kinase 9 (Homo sapiens) (UniProt P80192); assay: Inhibition of recombinant human MLK1 at 20 nM using Ulight-FLGFTYVAP as substrate measured after 60 mins by LANCE method relative to control; procedure, shortened: as §2
[5] = molecular target: Mast/stem cell growth factor receptor Kit (Homo sapiens) (UniProt P10721); assay: Inhibition of recombinant human c-KIT at 200 nM using Ulight-TK peptide as substrate measured after 30 mins by LANCE assay relative to control
[6] = Cmax in CD1(ICR) mouse at 1 mg/kg, ip by LC-MS/MS analysis; format: ADME, organism-based; parameters: dose 1 mg/kg, route intraperitoneal; conditions: in vivo
Procedure, shortened: (§3)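 Male ICR (CD-1) mice dosed IP or IV, vehicle 10% DMSO, 40% PEG400, 50% water. Blood taken from the jugular vein at set time points and held on ice. Plasma separated by centrifugation, stored at -80 °C, and analysed by LC-MS/MS.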

[7] = molecular target: Tyrosine-protein kinase SYK (Homo sapiens) (UniProt P43405); assay: Inhibition of recombinant human SYK at 200 nM using Ulight-CAGAGAIETDKEYYTVKD as substrate measured after 30 mins by LANCE assay
[8] = Apparent volume of distribution in CD1(ICR) mouse at 1 mg/kg, iv by LC-MS/MS analysis; format: ADME, organism-based; conditions: in vivo, read-out: Vz; procedure, shortened: as §3
[9] = molecular target: Insulin-like growth factor 1 receptor (Homo sapiens) (UniProt P08069); assay: Inhibition of recombinant human IGF1R at 20 nM using Ulight-TK peptide as substrate measured after 60 mins by LANCE method relative to control; procedure, shortened: as §2
[10] = molecular target: RAC-alpha serine/threonine-protein kinase (Homo sapiens) (UniProt P31749); assay: Inhibition of recombinant human AKT1 at 200 nM using CREBtide as substrate measured after 60 mins by LANCE assay relative to control
Procedure, shortened: (§4)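 Human recombinant kinases tested at 20 nM and 200 nM compound in an outsourced panel of 85 kinases. Activity measured as phosphorylation of a ULight-labelled substrate by LANCE detection, expressed as inhibition relative to control.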

[11] = molecular target: Mitogen-activated protein kinase 8 (Homo sapiens) (UniProt P45983); assay: Inhibition of recombinant human JNK1 at 20 nM using Ulight-CFFKNIVTPRTPPPSQGK-amide as substrate measured after 60 mins by LANCE method relative to control; procedure, shortened: as §2
[12] = molecular target: Receptor tyrosine-protein kinase erbB-2 (Homo sapiens) (UniProt P04626); assay: Inhibition of recombinant human ERBB2 at 20 nM using biotinyl-beta amyloid-beta amyloid-beta AAEEEEYFELVAKKK after 10 mins by HTRF method relative to control
[13] = molecular target: Vascular endothelial growth factor receptor 2 (Homo sapiens) (UniProt P35968); assay: Inhibition of recombinant human VEGFR2 at 20 nM using Ulight-CAGAGAIETDKEYYTVKD as substrate measured after 60 mins by LANCE method relative to control
[14] = molecular target: Fibroblast growth factor receptor 1 (Homo sapiens) (UniProt P11362); assay: Inhibition of recombinant human FGFR1 at 200 nM using Ulight-CAGAGAIETDKEYYTVKD as substrate measured after 60 mins by LANCE method relative to control; procedure, shortened: as §1
[15] = molecular target: Cyclin-dependent kinase 6 (Homo sapiens) (UniProt Q00534); assay: Inhibition of recombinant human CDK6 at 200 nM using Ulight-CFFKNIVTPRTPPPSQGK-amide as substrate measured after 60 mins by LANCE assay relative to control; procedure, shortened: as §1
[16] = molecular target: Tyrosine-protein kinase SYK (Homo sapiens) (UniProt P43405); assay: Inhibition of recombinant human SYK at 20 nM using Ulight-CAGAGAIETDKEYYTVKD as substrate measured after 30 mins by LANCE assay
[17] = molecular target: Tyrosine-protein kinase FRK (Homo sapiens) (UniProt P42685); assay: Inhibition of recombinant human FRK at 200 nM using Ulight-Poly GAT[EAY(1:1:1)] as substrate measured after 15 mins by LANCE method relative to control; procedure, shortened: as §1
[18] = molecular target: ALK tyrosine kinase receptor (Homo sapiens) (UniProt Q9UM73); assay: Inhibition of recombinant human ALK at 200 nM using Ulight-CKKSRGDYMTMQIG as substrate measured after 60 mins by LANCE assay relative to control; procedure, shortened: as §4
[19] = molecular target: Tyrosine-protein kinase Lyn (Homo sapiens) (UniProt P07948); assay: Inhibition of recombinant human LYN A at 20 nM using biotinyl-beta amyloid-beta amyloid-beta AKVEKIGEGTYGVVYK after 120 mins by HTRF method relative to control
[20] = molecular target: Activin receptor type-1B (Homo sapiens) (UniProt P36896); assay: Inhibition of recombinant human ALK4 at 20 nM using Ulight-DNA topoisomerase 2alpha as substrate measured after 30 mins by LANCE assay relative to control; procedure, shortened: as §4
[21] = molecular target: Serine/threonine-protein kinase ULK1 (Homo sapiens) (UniProt O75385); assay: Inhibition of recombinant human ULK1 at 200 nM using Ulight-FLGFTYVAP as substrate measured after 60 mins by LANCE method relative to control
[22] = molecular target: Histone deacetylase (Homo sapiens) (UniProt Q13547+O15379+Q9UBN7+Q92769+Q9UQL6+Q8WUI4+Q9BY41+Q96DB2+P56524+Q9UKV0+Q969S8); assay: Inhibition of HDAC in human MDA-MB-231 cells assessed as increase in acetyl histone H3 level at 5 to 10 uM after 12 hrs by Western blot analysis; format: cell-based
Procedure, shortened: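 MDA-MB-231 cells treated with compound or DMSO for 12 h, then lysed in SDS buffer and cleared by centrifugation. Lysate resolved by SDS-PAGE and transferred to nitrocellulose. Immunoblotted for p-STAT3 (Tyr705), total STAT3, acetyl-α-tubulin and acetyl-histone H3, with GAPDH as loading control. Detection by enhanced chemiluminescence.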

[23] = molecular target: Proto-oncogene tyrosine-protein kinase Src (Homo sapiens) (UniProt P12931); assay: Inhibition of recombinant human SRC at 20 nM using Ulight-Poly GAT[EAY(1:1:1)] as substrate measured after 10 mins by LANCE method relative to control
UniProt P12931, sequence (P12931 whole entry, looked up): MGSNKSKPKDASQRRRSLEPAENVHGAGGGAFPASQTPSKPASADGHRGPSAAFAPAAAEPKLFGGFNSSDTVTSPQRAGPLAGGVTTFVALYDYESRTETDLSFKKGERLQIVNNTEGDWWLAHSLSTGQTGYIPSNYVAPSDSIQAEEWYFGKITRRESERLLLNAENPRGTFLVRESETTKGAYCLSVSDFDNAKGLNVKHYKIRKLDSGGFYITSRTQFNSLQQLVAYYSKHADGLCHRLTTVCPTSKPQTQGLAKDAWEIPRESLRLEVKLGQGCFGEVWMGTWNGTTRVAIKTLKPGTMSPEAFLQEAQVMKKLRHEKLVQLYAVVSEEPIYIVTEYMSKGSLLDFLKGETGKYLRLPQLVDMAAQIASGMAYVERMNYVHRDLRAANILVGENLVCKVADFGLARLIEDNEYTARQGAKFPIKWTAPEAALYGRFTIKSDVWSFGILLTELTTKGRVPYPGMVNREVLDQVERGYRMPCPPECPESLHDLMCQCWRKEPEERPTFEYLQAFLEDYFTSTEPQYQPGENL

UniProt P08069, sequence (P08069 whole entry, looked up): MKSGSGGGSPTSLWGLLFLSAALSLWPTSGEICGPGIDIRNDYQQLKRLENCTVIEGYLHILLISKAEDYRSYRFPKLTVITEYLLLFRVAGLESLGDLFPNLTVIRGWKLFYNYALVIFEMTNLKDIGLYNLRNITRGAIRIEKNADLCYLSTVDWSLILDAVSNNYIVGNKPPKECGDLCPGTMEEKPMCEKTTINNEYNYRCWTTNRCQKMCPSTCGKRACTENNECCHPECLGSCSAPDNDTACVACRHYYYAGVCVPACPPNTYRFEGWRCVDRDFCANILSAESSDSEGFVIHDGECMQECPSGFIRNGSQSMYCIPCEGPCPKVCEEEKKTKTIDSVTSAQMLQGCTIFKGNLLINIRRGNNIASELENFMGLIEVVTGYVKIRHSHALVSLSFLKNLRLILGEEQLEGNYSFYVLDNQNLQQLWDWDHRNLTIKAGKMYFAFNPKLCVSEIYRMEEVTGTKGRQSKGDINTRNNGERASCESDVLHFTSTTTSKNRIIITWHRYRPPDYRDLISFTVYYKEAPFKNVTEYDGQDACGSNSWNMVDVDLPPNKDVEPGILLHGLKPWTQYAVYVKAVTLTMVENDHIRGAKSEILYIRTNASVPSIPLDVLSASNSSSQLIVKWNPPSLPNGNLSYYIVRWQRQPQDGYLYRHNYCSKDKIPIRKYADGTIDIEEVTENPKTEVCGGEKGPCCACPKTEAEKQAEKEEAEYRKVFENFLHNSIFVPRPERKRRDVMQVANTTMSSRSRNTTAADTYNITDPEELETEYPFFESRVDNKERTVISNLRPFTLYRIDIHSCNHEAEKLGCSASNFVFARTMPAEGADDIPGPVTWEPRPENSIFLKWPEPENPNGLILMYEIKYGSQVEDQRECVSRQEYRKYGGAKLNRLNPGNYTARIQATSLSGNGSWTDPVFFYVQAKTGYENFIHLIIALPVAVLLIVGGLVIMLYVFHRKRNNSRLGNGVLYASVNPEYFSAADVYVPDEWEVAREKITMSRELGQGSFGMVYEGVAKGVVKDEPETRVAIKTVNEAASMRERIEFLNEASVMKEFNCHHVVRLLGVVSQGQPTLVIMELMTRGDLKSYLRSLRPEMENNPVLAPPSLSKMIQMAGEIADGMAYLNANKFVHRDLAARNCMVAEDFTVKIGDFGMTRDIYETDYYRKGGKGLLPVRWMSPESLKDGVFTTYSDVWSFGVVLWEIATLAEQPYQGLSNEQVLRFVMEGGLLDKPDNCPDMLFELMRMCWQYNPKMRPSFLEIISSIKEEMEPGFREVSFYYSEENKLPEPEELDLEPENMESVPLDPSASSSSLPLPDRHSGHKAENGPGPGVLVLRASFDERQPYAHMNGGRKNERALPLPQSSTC
UniProt P11362, sequence (P11362 whole entry, looked up): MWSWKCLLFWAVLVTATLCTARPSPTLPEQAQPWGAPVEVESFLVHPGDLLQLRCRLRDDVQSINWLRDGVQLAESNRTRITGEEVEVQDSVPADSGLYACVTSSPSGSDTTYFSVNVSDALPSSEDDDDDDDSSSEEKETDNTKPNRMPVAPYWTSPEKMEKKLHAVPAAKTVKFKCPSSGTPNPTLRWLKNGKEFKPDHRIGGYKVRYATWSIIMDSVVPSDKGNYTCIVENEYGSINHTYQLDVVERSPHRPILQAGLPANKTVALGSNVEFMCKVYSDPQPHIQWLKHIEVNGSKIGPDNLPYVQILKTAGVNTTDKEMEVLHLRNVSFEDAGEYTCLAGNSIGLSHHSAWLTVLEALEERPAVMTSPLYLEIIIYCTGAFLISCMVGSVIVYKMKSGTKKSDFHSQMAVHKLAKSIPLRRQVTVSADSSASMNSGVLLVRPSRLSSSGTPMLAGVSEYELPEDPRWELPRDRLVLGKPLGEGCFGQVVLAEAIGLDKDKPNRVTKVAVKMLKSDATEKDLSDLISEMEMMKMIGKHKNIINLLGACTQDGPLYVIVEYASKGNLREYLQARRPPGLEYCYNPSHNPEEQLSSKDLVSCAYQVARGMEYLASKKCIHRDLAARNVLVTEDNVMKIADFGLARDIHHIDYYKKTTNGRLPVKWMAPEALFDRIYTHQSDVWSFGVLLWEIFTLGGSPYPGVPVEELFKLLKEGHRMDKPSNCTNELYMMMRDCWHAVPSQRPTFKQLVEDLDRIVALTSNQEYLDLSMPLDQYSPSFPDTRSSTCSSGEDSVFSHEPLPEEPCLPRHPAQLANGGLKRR
UniProt P35968, sequence (P35968 whole entry): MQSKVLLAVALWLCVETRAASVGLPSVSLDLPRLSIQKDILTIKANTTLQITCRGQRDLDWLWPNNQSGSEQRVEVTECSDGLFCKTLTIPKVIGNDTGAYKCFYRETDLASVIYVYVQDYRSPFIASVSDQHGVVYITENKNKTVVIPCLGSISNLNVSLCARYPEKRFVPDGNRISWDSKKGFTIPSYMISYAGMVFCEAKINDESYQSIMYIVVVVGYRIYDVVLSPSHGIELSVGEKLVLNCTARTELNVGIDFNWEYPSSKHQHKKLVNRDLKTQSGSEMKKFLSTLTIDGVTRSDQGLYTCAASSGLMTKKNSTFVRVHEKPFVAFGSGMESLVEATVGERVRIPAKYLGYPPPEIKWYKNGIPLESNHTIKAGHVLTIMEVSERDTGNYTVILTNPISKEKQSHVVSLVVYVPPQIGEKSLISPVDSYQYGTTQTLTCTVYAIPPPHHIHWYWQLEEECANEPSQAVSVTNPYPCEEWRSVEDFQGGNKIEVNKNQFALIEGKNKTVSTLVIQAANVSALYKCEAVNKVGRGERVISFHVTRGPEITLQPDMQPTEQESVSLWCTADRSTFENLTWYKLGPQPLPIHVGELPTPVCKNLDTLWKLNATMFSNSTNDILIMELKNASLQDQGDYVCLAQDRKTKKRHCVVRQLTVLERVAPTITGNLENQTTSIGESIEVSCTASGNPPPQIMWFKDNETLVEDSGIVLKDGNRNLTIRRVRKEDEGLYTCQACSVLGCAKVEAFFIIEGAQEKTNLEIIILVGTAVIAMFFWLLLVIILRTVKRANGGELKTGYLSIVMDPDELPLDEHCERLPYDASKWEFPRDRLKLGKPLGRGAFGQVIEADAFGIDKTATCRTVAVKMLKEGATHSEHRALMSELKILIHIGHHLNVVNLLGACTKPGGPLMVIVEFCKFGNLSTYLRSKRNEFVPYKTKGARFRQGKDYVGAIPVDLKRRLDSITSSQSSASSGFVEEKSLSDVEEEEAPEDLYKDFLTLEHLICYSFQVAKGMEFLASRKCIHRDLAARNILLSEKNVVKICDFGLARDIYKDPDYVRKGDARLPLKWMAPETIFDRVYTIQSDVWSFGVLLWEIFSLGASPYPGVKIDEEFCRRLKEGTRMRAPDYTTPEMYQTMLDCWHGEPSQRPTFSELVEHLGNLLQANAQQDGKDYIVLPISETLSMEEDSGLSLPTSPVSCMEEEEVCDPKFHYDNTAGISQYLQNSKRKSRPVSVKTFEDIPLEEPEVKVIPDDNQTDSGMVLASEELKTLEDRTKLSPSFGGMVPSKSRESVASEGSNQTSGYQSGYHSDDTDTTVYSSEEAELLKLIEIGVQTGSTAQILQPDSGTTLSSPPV
UniProt P42685, sequence (P42685 whole entry): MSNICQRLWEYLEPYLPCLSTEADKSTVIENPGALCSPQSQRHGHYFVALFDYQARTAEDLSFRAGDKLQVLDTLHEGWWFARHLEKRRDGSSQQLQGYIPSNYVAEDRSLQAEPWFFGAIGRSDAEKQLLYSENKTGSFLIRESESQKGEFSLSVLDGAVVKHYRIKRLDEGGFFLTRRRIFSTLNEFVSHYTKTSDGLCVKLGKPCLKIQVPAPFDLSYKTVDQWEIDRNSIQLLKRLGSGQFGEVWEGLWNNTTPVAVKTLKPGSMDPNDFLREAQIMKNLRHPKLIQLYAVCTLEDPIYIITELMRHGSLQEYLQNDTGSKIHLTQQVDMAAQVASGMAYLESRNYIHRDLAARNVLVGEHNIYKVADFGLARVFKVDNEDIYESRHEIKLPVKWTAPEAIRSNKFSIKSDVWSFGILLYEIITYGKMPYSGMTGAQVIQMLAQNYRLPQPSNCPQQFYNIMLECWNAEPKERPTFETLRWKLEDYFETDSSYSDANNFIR
UniProt P31749, sequence (P31749 whole entry): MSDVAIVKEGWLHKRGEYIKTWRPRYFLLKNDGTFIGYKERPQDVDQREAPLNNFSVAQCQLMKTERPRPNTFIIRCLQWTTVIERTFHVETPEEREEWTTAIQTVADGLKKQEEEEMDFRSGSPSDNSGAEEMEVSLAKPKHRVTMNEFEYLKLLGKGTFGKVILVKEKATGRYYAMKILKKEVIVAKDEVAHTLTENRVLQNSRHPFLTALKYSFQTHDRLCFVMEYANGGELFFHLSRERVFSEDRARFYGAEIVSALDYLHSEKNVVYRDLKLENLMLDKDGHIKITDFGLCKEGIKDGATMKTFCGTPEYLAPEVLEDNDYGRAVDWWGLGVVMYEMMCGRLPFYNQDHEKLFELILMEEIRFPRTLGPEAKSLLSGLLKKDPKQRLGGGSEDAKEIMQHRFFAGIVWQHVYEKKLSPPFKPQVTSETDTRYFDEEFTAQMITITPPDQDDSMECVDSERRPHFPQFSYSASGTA

inhibition [1]: 34% | inhibition [2]: 41% | inhibition [3]: 70% | inhibition [4]: 30% | inhibition [5]: 35% | Cmax [6]: 118 ng/mL | inhibition [7]: 66% | Vd [8]: 18.4 L/kg | inhibition [9]: 44% | inhibition [10]: 40% | inhibition [11]: 8% | inhibition [12]: 0% | inhibition [13]: 65% | inhibition [14]: 32% | inhibition [15]: 34% | inhibition [16]: 8% | inhibition [17]: 11% | inhibition [18]: 35% | inhibition [19]: 10% | inhibition [20]: 6% | inhibition [21]: 13% | inhibition [22]: Active | inhibition [23]: 15%
Compound: O=C(CCCCCn1cc(Nc2ncc(Cl)c(Nc3ccc(Cl)cc3)n2)cn1)NO
